# According to the supplement of paper PMC8728848:
# The other results are listed elsewhere or left out.
# B1: PX9961U-pdi-543-24-543 (Parabacteroides distasonis) (protein)
# chain: EEPVGEFLPGQVESEENIEGIVTGAYAVLDGYYASDAINSGCSNWQFGDVVSDDAYKGGGGTGDQNQIHLMEIFNANPTGIDFEARWAALYEGIKRCNQAIRLLNGSEVKNKEQRLAEMRFLRGHYYFNLKIIYNQIPWIDETLVDPNEYNKKSNIEFSSDQLWEKILEEFSAAYKVLPESQADYGRPTKMAARAYMAKVYLYQSKWKECLEACDEVIQSGKYELFPDFRNVFLPENDNCSEIIFAIQLSINDGSPNNENGSYGDRLLPPGGPYPVYGFLRPTQNLVNAYKTDVKGLPYNDGKDVSENDYVDVRLDHTLARPNIPFMDVQLYDWTPREASVYGPYSPKKRLVSLNSTYYSPIWPYVNALNFYVIRYADLLLWRAEAAIETGDLETGRKYINMIRERAKNTQHVKTMDQSQDAANYKVGVYDEPFKSKNEAVQALRMERRLEMAHEGIRFFDLVRWGVADEVINAYIAKEKVFRSHLQNAHFVKGKHEYFPIPQSMIDICGTEVMKQNPGY
# Key:
# Assay in all cases: glycan array binding signal (z-score within array); higher = stronger binding
# Conditions in all cases: glycan notation: IUPAC condensed, linker removed
# Fuc(a1-2)Gal = molecular target: Fuc(a1-2)Gal
# Summary of the method: (§1)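 From the Consortium for Functional Glycomics database, 3228 arrays were curated, keeping only those whose protein sequence was available. Binding is given as a within-array Z-score averaged across arrays sharing a protein sequence and across linkers. Negative Z-scores can be read as non-binding.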
# Fuc(a1-2)Gal(b1-3)GalNAc = molecular target: Fuc(a1-2)Gal(b1-3)GalNAc
# Summary of the method: as §1
# [1] = molecular target: Fuc(a1-2)Gal(b1-3)GalNAc(a1-3)[Fuc(a1-2)]Gal(b1-4)Glc
# Summary of the method: as §1
# [2] = molecular target: Fuc(a1-2)Gal(b1-3)GalNAc(a1-3)[Fuc(a1-2)]Gal(b1-4)GlcNAc
# Summary of the method: as §1
# [3] = molecular target: Fuc(a1-2)Gal(b1-3)GalNAc(b1-3)Gal
# Summary of the method: as §1
# [4] = molecular target: Fuc(a1-2)Gal(b1-3)GalNAc(b1-3)Gal(a1-4)Gal(b1-4)Glc
# Summary of the method: as §1
# [5] = molecular target: Fuc(a1-2)Gal(b1-3)GalNAc(b1-4)[Neu5Ac(a2-3)]Gal(b1-4)Glc
# Summary of the method: as §1
# Fuc(a1-2)Gal(b1-3)GlcNAc = molecular target: Fuc(a1-2)Gal(b1-3)GlcNAc
# Summary of the method: as §1
# [6] = molecular target: Fuc(a1-2)Gal(b1-3)GlcNAc(b1-2)Man(a1-3)[Fuc(a1-2)Gal(b1-3)GlcNAc(b1-2)Man(a1-6)]Man(b1-4)GlcNAc(b1-4)GlcNAc
# Summary of the method: as §1
# [7] = molecular target: Fuc(a1-2)Gal(b1-3)GlcNAc(b1-2)Man(a1-3)[Fuc(a1-2)Gal(b1-3)GlcNAc(b1-2)Man(a1-6)]Man(b1-4)GlcNAc(b1-4)[Fuc(a1-6)]GlcNAc
# Summary of the method: as §1
# [8] = molecular target: Fuc(a1-2)Gal(b1-3)GlcNAc(b1-3)Gal(b1-4)Glc
# Summary of the method: as §1
# [9] = molecular target: Fuc(a1-2)Gal(b1-3)GlcNAc(b1-3)GalNAc
# Summary of the method: as §1
# [10] = molecular target: Fuc(a1-2)Gal(b1-3)GlcNAc(b1-3)[Fuc(a1-2)Gal(b1-3)GlcNAc(b1-6)]GalNAc
# Summary of the method: as §1
# [11] = molecular target: Fuc(a1-2)Gal(b1-3)GlcNAc(b1-3)[Gal(b1-4)GlcNAc(b1-6)]Gal(b1-4)Glc
# Summary of the method: as §1
# [12] = molecular target: Fuc(a1-2)Gal(b1-3)GlcNAc(b1-3)[Neu5Ac(a2-6)Gal(b1-4)GlcNAc(b1-6)]Gal(b1-4)Glc
# Summary of the method: as §1
# [13] = molecular target: Fuc(a1-2)Gal(b1-3)GlcNAc6S
# Summary of the method: as §1
# [14] = molecular target: Fuc(a1-2)Gal(b1-3)[Fuc(a1-4)]GlcNAc
# Summary of the method: as §1
# [15] = molecular target: Fuc(a1-2)Gal(b1-3)[Fuc(a1-4)]GlcNAc(b1-2)Man(a1-3)[Fuc(a1-2)Gal(b1-3)[Fuc(a1-4)]GlcNAc(b1-2)Man(a1-3)]Man(b1-4)GlcNAc(b1-4)GlcNAc
# Summary of the method: as §1
# [16] = molecular target: Fuc(a1-2)Gal(b1-3)[Fuc(a1-4)]GlcNAc(b1-2)Man(a1-3)[Fuc(a1-2)Gal(b1-3)[Fuc(a1-4)]GlcNAc(b1-2)Man(a1-6)]Man(b1-4)GlcNAc(b1-4)[Fuc(a1-6)]GlcNAc(b1-4)[Fuc(a1-6)]GlcNAc
# Summary of the method: as §1
# [17] = molecular target: Fuc(a1-2)Gal(b1-3)[Fuc(a1-4)]GlcNAc(b1-3)[Fuc(a1-3)[Gal(b1-4)]GlcNAc(b1-6)]Gal(b1-4)Glc
# Summary of the method: as §1
# [18] = molecular target: Fuc(a1-2)Gal(b1-3)[Fuc(a1-4)]GlcNAc(b1-3)[Gal(b1-4)GlcNAc(b1-6)]Gal(b1-4)Glc
# Summary of the method: as §1
# Fuc(a1-2)Gal(b1-4)Glc = molecular target: Fuc(a1-2)Gal(b1-4)Glc
# Summary of the method: as §1
# Fuc(a1-2)Gal(b1-4)Glc6S = molecular target: Fuc(a1-2)Gal(b1-4)Glc6S
# Summary of the method: as §1
# Fuc(a1-2)Gal(b1-4)GlcNAc = molecular target: Fuc(a1-2)Gal(b1-4)GlcNAc
# Summary of the method: as §1
# [19] = molecular target: Fuc(a1-2)Gal(b1-4)GlcNAc(b1-2)Man
# Summary of the method: as §1
# [20] = molecular target: Fuc(a1-2)Gal(b1-4)GlcNAc(b1-2)Man(a1-3)[Fuc(a1-2)Gal(b1-4)GlcNAc(b1-2)Man(a1-6)]Man(b1-4)GlcNAc(b1-4)GlcNAc
# Summary of the method: as §1
# [21] = molecular target: Fuc(a1-2)Gal(b1-4)GlcNAc(b1-2)Man(a1-3)[Fuc(a1-2)Gal(b1-4)GlcNAc(b1-2)Man(a1-6)]Man(b1-4)GlcNAc(b1-4)[Fuc(a1-6)]GlcNAc
# Summary of the method: as §1
# [22] = molecular target: Fuc(a1-2)Gal(b1-4)GlcNAc(b1-2)[Fuc(a1-2)Gal(b1-4)GlcNAc(b1-4)]Man(a1-3)[Fuc(a1-2)Gal(b1-4)GlcNAc(b1-2)Man(a1-6)]Man(b1-4)GlcNAc(b1-4)GlcNAc
# Summary of the method: as §1
# [23] = molecular target: Fuc(a1-2)Gal(b1-4)GlcNAc(b1-3)Gal(b1-4)GlcNAc
# Summary of the method: as §1
# [24] = molecular target: Fuc(a1-2)Gal(b1-4)GlcNAc(b1-3)Gal(b1-4)GlcNAc(b1-2)Man(a1-3)[Fuc(a1-2)Gal(b1-4)GlcNAc(b1-3)Gal(b1-4)GlcNAc(b1-2)Man(a1-6)]Man(b1-4)GlcNAc(b1-4)GlcNAc
# Summary of the method: as §1
binder,measurement,setting,value
B1,glycan array binding signal (z-score),Fuc(a1-2)Gal,-0.431
same,glycan array binding signal (z-score),Fuc(a1-2)Gal(b1-3)GalNAc,-0.397
same,glycan array binding signal (z-score),[1],-0.412
same,glycan array binding signal (z-score),[2],-0.411
same,glycan array binding signal (z-score),[3],-0.399
same,glycan array binding signal (z-score),[4],-0.25
same,glycan array binding signal (z-score),[5],-0.337
same,glycan array binding signal (z-score),Fuc(a1-2)Gal(b1-3)GlcNAc,-0.324
same,glycan array binding signal (z-score),[6],7.29
same,glycan array binding signal (z-score),[7],-0.341
same,glycan array binding signal (z-score),[8],-0.353
same,glycan array binding signal (z-score),[9],-0.396
same,glycan array binding signal (z-score),[10],1.45
same,glycan array binding signal (z-score),[11],2.71
same,glycan array binding signal (z-score),[12],-0.068
same,glycan array binding signal (z-score),[13],0.244
same,glycan array binding signal (z-score),[14],-0.46
same,glycan array binding signal (z-score),[15],-0.341
same,glycan array binding signal (z-score),[16],-0.292
same,glycan array binding signal (z-score),[17],-0.209
same,glycan array binding signal (z-score),[18],-0.272
same,glycan array binding signal (z-score),Fuc(a1-2)Gal(b1-4)Glc,-0.369
same,glycan array binding signal (z-score),Fuc(a1-2)Gal(b1-4)Glc6S,-0.456
same,glycan array binding signal (z-score),Fuc(a1-2)Gal(b1-4)GlcNAc,-0.217
same,glycan array binding signal (z-score),[19],-0.363
same,glycan array binding signal (z-score),[20],2.83
same,glycan array binding signal (z-score),[21],-0.384
same,glycan array binding signal (z-score),[22],-0.377
same,glycan array binding signal (z-score),[23],-0.463
same,glycan array binding signal (z-score),[24],-0.241
